Data reported in the supplement of paper PMC10126150.
Sequences with one replicate were seen in a single cluster, so their values are uncertain.

System: ATP
Experiment: switch fluorescence ratio, 500 uM ATP over buffer (Cy3 cluster intensity, sum of 5 cycles each) (fold (ratio)); higher = stronger signal-on switching upon ATP binding; sequences stand for … in TCGTCGGCAGCGTCAGATGTGTATAAGAGACAGTTTTTTTTTTTTTTTTTTTTTTTTT…TC
Conditions: aptamer strand: ATP DNA aptamer (quencher-CACCTGGGGGAGTATTGCGGAGGAAGG + anchor), 100 nM annealed; ATP concentration: 500 uM; one replicate
Procedure, shortened: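 After annealing to 100 nM quencher-labelled ATP aptamer, Cy3-labelled switching-strand clusters on a modified Illumina MiSeq flow-cell were imaged in selection buffer. A second image followed after 15 min with 500 uM ATP at 22 °C, and five such buffer/ATP cycles were done, each separated by NaOH stripping and re-annealing. The fluorescence ratio, averaged per switch-domain sequence, is summed target-cycle over summed buffer-cycle Cy3 intensity per cluster, with clusters outside 100-1000 RFU excluded.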
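Further: ATP exposure 15 min at 22 °C before imaging.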

Sequence | switch fluorescence ratio
CCATTTCGC | 1.03
GGAGTAGTTC | 1.02
ATGGGCAAAG | 0.987
TACTTCGGCA | 1.08
TTGGACGCGC | 1.04
GTCAGAGTTT | 1.01
CAGCCACAGC | 1.02
GAGGTTACCG | 1.11
GATCGTAGAC | 1.03
ATACACTTAA | 1.09
ACTACGTATT | 1.18
AAAATTCTT | 0.987
GAATTACGAG | 1.02
GTTCTGGTGA | 0.999
TAAGACATTA | 0.991
AAAGTCAGTT | 1.01
CTCCGCAGGG | 5.46
GCCCAGATTT | 1.04
CCGAGGGTCT | 1.25
GCGCGTTATT | 1.01
CCCAACTTCC | 1.09
AGGCCATCAG | 0.991
TAACAGTAGT | 1.09
TTTGGTAGGT | 0.998
GCTCTGTCCT | 1.04
CTGGTGATTA | 1.01

Sequence | switch fluorescence ratio
CGCCGGTTTC | 1.02
TAAGAAGCCC | 0.903
TTAATCCTGC | 1.04
CACCGTCCGG | 1.04
CGGACGAGG | 1.03
TTAAGTTGG | 0.948
ATTGACTTTA | 1.07
CTTTATAACG | 0.98
CCTAAGGGCA | 1.01
TGTTTATTGC | 0.995
GACTTGATCT | 1.01
TGTAAAGACA | 1.04
TACCCTCT | 1.04
GCGGCATCTG | 0.976
ATAATTGCGC | 1.04
TTGGTATGGT | 0.967
AAGGGTGCCA | 1.04
CAAGGAAGGC | 1.07
ATGTTAGTTA | 0.98
TAGGCGCTGT | 1
GTAATTAAA | 1.04
GATACTGTCG | 0.986
GAGCTGAAGG | 0.984
TGTAATGGGA | 0.971
TAATTGTGCA | 1.02
ACTTGAGCTG | 0.955

Sequence | switch fluorescence ratio
TCCTGCAGAT | 1.2
GTTCTAGTGG | 1.02
TAAGAACCTA | 1
TGATTTTGTA | 0.977
GGTAAGCAGG | 0.958
CGAAGGTTGG | 0.981
TAGGTGCGGA | 1.04
GTGTGGCTTT | 1.01
CGGCAACACG | 1.66
AGCTGGGGCC | 1.01
ACGAAGGAT | 1
ATCACTGCAT | 1.16
CGAAATGCAT | 0.973
TCTTGACCCT | 1.03
CAAGTGGTTA | 0.961
AAAAGGAGCA | 1.01
AGATTAGCTT | 1.02
AACTGATATA | 1.01
AACAATACTG | 1.26
CAGACGCGTC | 1.03
GAGGGTGATG | 0.955
ATCTCCCGGG | 1.37
TGACACGTAT | 1.15
GAATTGTAAA | 0.997
TTCCTATCGG | 0.987
GGCTCAGTA | 0.987

Sequence | switch fluorescence ratio
TTGGTTCTA | 1.02
TACAGAGGCG | 1.03
TTGTGCAGGA | 1.05
AATTCTACCG | 1.07
CAGAAACATT | 0.967
TTTTGCAATA | 1.04
ACAAGCCATC | 1.08
GCAAAATGCT | 0.981
CTAATTCGCC | 1.04
GAACGGAGCG | 1.02
CCGAA | 1.01
GCGGGCTCCG | 1.09
GAGTTTCGTA | 0.989
ACATCTTGTA | 1.08
ATACTCTAGA | 1.06
GCGCTAAGAT | 1.04
TTGTAGCACT | 1.06
GGACTTCTTC | 1.16
TTGGCGTACG | 1.03
GGAGATGTCT | 0.987
TTATCGTCTC | 1.04
CAAGGACTTA | 0.968
GCAGGCCAGG | 1.23
ATACCCTGC | 0.992
GGTCAAGGCA | 1.03
AAACTCAGAG | 0.961

Sequence | switch fluorescence ratio
CTGATCGACG | 1.02
ATTTAAGTCT | 1.02
TCCCGTGTGT | 1.13
TGTCTCGTCC | 0.991
TTTATCAACC | 1.03
CTGTGAAATT | 1.05
CCCTTCACTT | 1.05
AGTAACTCAG | 1.01
ATTGCAGGCG | 0.942
CCGTGCAAGG | 2.79
CTATGCGGCA | 1
TTTCGTGTT | 1.07
TGGCCGGGTC | 1.08
TGGGACGGC | 1.05
GGTTTACGTT | 1.01
GCGATGAACA | 1.01
GCAATTTCCG | 1.23
GCCGCCACCA | 1.05
TAAGGAATA | 1.06
ACCGGAAACA | 1.09
AGAAAAGTTC | 1.12
CCCGTTGCAG | 0.964
CGCTTGACTG | 1
GTCCTTCTAG | 1.01
GATCAGTATG | 1
TTTGTGCGTT | 1.02

Sequence | switch fluorescence ratio
TATTCGTGGT | 0.978
TTAGATTAAC | 1.01
AGGCCTTGAA | 0.996
GATCTGGTAG | 0.978
AACCTCACTT | 1.16
TCATAGGAAC | 1.05
TTACTTTACG | 1.37
AACTTTTAGC | 1.02
GATAGTGTGG | 1.09
GACTTCAACT | 1.06
GCTTCTAGTT | 0.99
GCGAAACACG | 1.08
TTCCAAAGTC | 1.01
TAGGACTTTT | 1.02
CAGTGAAGAA | 0.997
ATCGTTTTGG | 0.995
TCGAGACCGG | 1.11
ACCTTCCGAA | 2.87
AGGACATATC | 1.05
AAGTTCTTGG | 1.02
ATGAGTAAAT | 1
CTTGACTCTT | 0.995
TACTAGCTCC | 0.986
GTTCTAGGAA | 1.01
TATCGAGATT | 0.979
ATCAGGACG | 1.01

Sequence | switch fluorescence ratio
CAATAAGTCA | 1
GATCTTGACT | 1.01
TTGTTTTGCC | 0.948
TGCTGGTCGA | 1
CACCTGGGC | 1.09
TTCACGAGA | 1.06
AATCTTTAGG | 0.986
TGTTAGTCGG | 1
GATTTGCCTC | 0.996
AGTTGATCGC | 0.933
CGGCCGGCGG | 0.952
ACAGATCGGC | 0.972
AGTTGGCATT | 1.03
GATCGGGTCG | 1.03
TTTTCTCTC | 0.965
GGAGAAGCGA | 1.02
AAGCAATCA | 1.35
GTTCCGTATA | 1.28
GATGTTTTGT | 1.01
ACACGAGTCG | 1.03
TTTCTTGTAG | 0.962
CTAGATGTCC | 1.03
AAATTGTCGG | 0.982
TCCTGTGGCA | 1.18
GCGCGTTTCC | 1.03
CCAATTCGCA | 1.67

Sequence | switch fluorescence ratio
CAACCGCTGT | 1.58
GTTCGCTATG | 1.05
CGTAGTGTTG | 0.999
TTTCCTATTT | 1.03
AACGATTCTG | 1.11
CGGCATCACT | 1.19
TACAGGTGGT | 1.44
CGGTTTACTC | 1.07
CCTAAGGAGC | 1.04
GCGAATCTTG | 1
AAGGGGTGTC | 0.985
GACACTAGCC | 1.07
GAGGTATCGT | 1.01
CATAGCCTGG | 1
TCTTGAGGG | 1.03
ACGCTCTTCT | 1.02
ATGTGGTCCT | 1.01
ATAACGCCTG | 1.02
AAGAGTGAGG | 0.976
